{"source": "ChEMBL document CHEMBL4888484", "about": "“Replenishing the malaria drug discovery pipeline: Screening and hit evaluation of the MMV Hit Generation Library 1 (HGL1) against asexual blood stage Plasmodium falciparum ,using a nano luciferase reporter read-out” (2022)", "note": "The campaign covered roughly 150,000 compounds. About 540 (0.36%) showed an effect of 50% or more. The list shows a part of the results."}
{"tested_on": "Plasmodium falciparum", "assay": "Primary screen in NF54 nanoGlo assay, in single point, at 2uM, 72h; a lower Z score goes with more inhibition", "format": "functional, Erythrocyte", "settings": "timepoint 72 hour", "units": {"% Inhibition": "%"}}
{"smiles": "Cc1ccc(N[C@@](C)(C(=O)NCCc2ccccn2)c2ccccc2)cc1", "% Inhibition": -3, "Z score": 0.57}
{"smiles": "Cc1cc(=O)[nH]c(NCCNc2cc(C)nc3ccnn23)n1", "% Inhibition": 2, "Z score": -0.44}
{"smiles": "COCCn1ccc2c(NC(=O)CC[C@@H](C)[C@H]3CC[C@H]4[C@@H]5[C@H](O)C[C@@H]6C[C@H](O)CC[C@]6(C)[C@H]5C[C@H](O)[C@]34C)cccc21", "% Inhibition": 4, "Z score": -0.48}
{"smiles": "O=C(Nc1cccc(C(F)(F)F)c1F)N[C@H]1COC[C@@H]1N1CCOCC1", "% Inhibition": -6, "Z score": 1.2}
{"smiles": "Cc1ccc2cc(CN3CCC(OC4CCOCC4)CC3)ccc2n1", "% Inhibition": -11, "Z score": 1.28}
{"smiles": "CC(=O)NCCCS(=O)(=O)[C@@H](C)c1ccc(Cl)c(Cl)c1", "% Inhibition": -4, "Z score": 0.56}
{"smiles": "O=C(CCc1ccsc1)NS(=O)(=O)C1CCCC1", "% Inhibition": -3, "Z score": 0.28}
{"smiles": "Cc1c[nH]c(C(=O)NCCc2nc(C3CC3)no2)n1", "% Inhibition": 0, "Z score": 0.01}
{"smiles": "O=C(CCC(F)(F)F)Nc1nc(-c2ccncc2)ns1", "% Inhibition": -20, "Z score": 1.77}
{"smiles": "O=C(N[C@H]1CCOC2(CCCCC2)C1)c1cc(C(F)(F)F)no1", "% Inhibition": 12, "Z score": -1.35}
{"smiles": "CCCCN(C(=O)[C@@H]1CCN1)C1CCCCCC1", "% Inhibition": -2, "Z score": 0.47}
{"smiles": "Cc1ccc2sc(CN(C)c3ccc(C(=O)N4CCOCC4)cc3C)nc2c1", "% Inhibition": -5, "Z score": 0.75}
{"smiles": "O=C1NC2(CCN(S(=O)(=O)c3ccc(F)c(Cl)c3)CC2)N=C1c1ccccc1", "% Inhibition": -5, "Z score": 0.58}
{"smiles": "Cc1cccc([C@H]2NCCc3sccc32)n1", "% Inhibition": 46, "Z score": -5.16}
{"smiles": "COCCC(C)NC(=O)N(C)CC1CCCCC1O", "note": "(stereo unspecified)", "% Inhibition": -3, "Z score": 0.35}
{"smiles": "CC1(C)COCCN1CCNS(=O)(=O)C1C[C@@H]2CC[C@H]1C2", "note": "(stereo partly specified)", "% Inhibition": -11, "Z score": 2.04}
{"smiles": "CNC(=O)c1cccc(Nc2c(Oc3ccc(C)c(C)c3)cnn(-c3cccc(Cl)c3)c2=O)c1", "% Inhibition": -11, "Z score": 1.26}
{"smiles": "COC(=O)c1c(NC(C)=O)c2cc(NCc3ccccc3F)cnc2n1CCc1ccc(OC)cc1", "% Inhibition": -14, "Z score": 1.59}
{"smiles": "CCOCC(=O)OCC(=O)NC(=O)Cc1ccccc1", "% Inhibition": -3, "Z score": 0.33}
{"smiles": "Cc1noc(C)c1N(C)CCCS(C)(=O)=O", "% Inhibition": 1, "Z score": -0.18}
{"smiles": "CCCC1(COC)CCCN1C(=O)NC1CCc2nc(CC)nn2C1", "note": "(stereo unspecified)", "% Inhibition": -9, "Z score": 0.94}
{"smiles": "COc1ccc(S(=O)(=O)N2CCOCC2)cc1NC(=O)c1cc(C)sc1C", "% Inhibition": -6, "Z score": 0.82}
{"smiles": "Cc1nonc1CC(=O)NC(Cc1ccncc1)[C@H]1C[C@@H](O)C1", "note": "(stereo partly specified)", "% Inhibition": 2, "Z score": -0.3}
